Measurements: patent publication US9777070B2, “Anti-PTK7 antibody-drug conjugates” (Pfizer Inc., priority 2014, dated 2017)

What was measured:
[1] = system: Breast-31 (BR31) TNBC PDX; experiment: In vivo efficacy, PDX tumor growth; set-up: species or system human tumor in NOD/SCID mice; conditions: 3 mg/kg
Description: (§1) The effects of anti-PTK7 antibody-drug conjugates were further evaluated on the in vivo growth of human tumor patient-derived xenografts (PDX). Primary tumor resection samples were procured from clinical sites following Institutional Review Board for the Protection of Human Subjects approval and in accordance with HIPAA regulations. Tumor fragments were stored and shipped in Hypothermasol (Biolife Solutions) on ice and were embedded in Matrigel (BD) containing a proprietary mix of growth factors and implanted subcutaneously into the mammary fatpad of female NOD/SCID mice within 24 hours of resection. Mice were monitored for health status daily and for tumor growth initially by visual inspection twice per week. Once the tumors were palpable, measurements of tumor volume began to track tumor growth and estimate cell doubling time. Tumor volume was estimated using the equation V=(A*B^2)/2 where A is the long axis and B is the short axis. When tumors reached a volume of 500 mm^3 to 1,500 mm^3, they were harvested for study and for re-transplant as a patient-derived xenograft (PDX). Depending on the line, mechanical and/or chemical dissociation can be used to separate the individual cells for passage. Live cells were inoculated into naïve animals with 10,000 to 50,000 cells per animals
(§2) For efficacy studies, tumors were harvested from passaging studies and cells were dissociated into single cell suspension. Preparations were counted for live cells using Trypan blue exclusion and 10,000 to 50,000 cells were inoculated per mouse in Matrigel. […] Tumor growth was initially followed by palpability with measurements beginning once tumor volumes reached about 30 mm^3. Studies were randomized based on tumor size once a cohort of tumor-bearing mice reached 140 mm^3 to 180 mm^3. Animals were dosed by intraperitoneal injection twice a week for two weeks (q4dx4). Study groups were followed until individual mice or entire group tumor measurements reached 1200 mm^3 when sacrifice was indicated in accordance with IACUC protocol. For selected dosing studies, pharmacokinetic submandibular bleeds were performed at 2 hours, 36 hours and 72 hours. A volume of 10 μL of blood was immediately pipetted into 90 μL of HBS-P (GE Healthcare). Samples were stored at −80° C. prior to analysis. For each tumor measurement the tumor volume±standard error of the mean (SEM) is provided. GT=Group Terminated due to large tumor size.
Animals were dosed every four days for four cycles (Q4Dx4) by intraperitoneal injection except the BR5 study which was by intravenous injection on the same schedule. Tumor measurements were recorded one or two times per week using digital calipers and tumor volume was estimated using the equation V=(A×B^2)/2 where A is the long axis and B is the short axis. Animal body weights were measured and recorded at least once a week. Study groups were followed until individual mice or entire group tumor measurements reached 1200 mm^3 at which point sacrifice was indicated in accordance with IACUC protocol. For the BR5 study, animals were sacrificed once tumor volume approached 15% of the body weight at staging in accordance with IACUC protocol.
Tumor growth inhibition (TGI) was calculated using the equation % TGI=[1−(mean tumor volume of treated)/(mean tumor volume of vehicle)]. […] Tumor regression was defined as a reduction in mean tumor volume after dosing. In cases where tumors regressed, Time To Progression (TTP) indicates the number of days between the first does and the time at which mean tumor volume increased from the previous measurement to a statistically significant degree.

HUVEC cells = experiment: In vitro HUVEC sprouting angiogenesis assay; format: cell-based, human; conditions: 1 μg/mL; 8 days; FIG. 23
Experimental: Briefly, HUVEC cells (Lonza—#CC-2517) were used to coat Cytodex beads (Sigma #C0646-5G) at a ratio of approximately 1×10^6 cells/2500 beads, and then placed overnight in an 37° C./5% CO2 incubator with Endothelial Cell Growth Medium (Lonza # CC-3162). The following day the beads were washed with Endothelial Cell Growth Medium, and re-suspended in a solution of a 2.0 mg/ml fibrinogen type I (filter sterilized) in DPBS and 0.15 units/ml Aprotinin. Into each well of a 24 well plate, 0.3125 units of thrombin were added prior to addition of 500 ul of the bead solution. To facilitate clotting, the plates were placed in a 37° C. incubator for 15 minutes. Lastly skin fibroblast cells (Detroit 551—ATCC #CCL-110), suspended in Endothelial Cell Growth Medium, were carefully laid on top of the formed fibrinogen clot. The cells were fed, with their respective drug treatment, every other day and grown for 8 days. The degree of HUVEC sprouting and formation of branching vessels was observed.

melanoma-23 (SK23) PDX = experiment: In vivo efficacy, PDX tumor growth; set-up: species or system human tumor in NOD/SCID mice
Description: as §1, §2

ovarian-55 (OV55) PDX = experiment: In vivo efficacy, PDX tumor growth; set-up: species or system human tumor in NOD/SCID mice; conditions: for tumor volume ± SEM: 3 mg/kg
Description: as §1, §2

B1: hu24-vc0101: hu24 conjugated through cysteines to vc0101 linker-payload; average DAR approximately 4 (conjugate)
heavy: QVQLVQSGPEVKKPGASVKVSCKASGYTFTDYAVHWVRQAPGKRLEWIGVISTYNDYTYNNQDFKGRVTMTRDTSASTAYMELSRLRSEDTAVYYCARGNSYFYALDYWGQGTSVTVSS[letters of human IgG1 constant region omitted]
light: EIVLTQSPATLSLSPGERATLSCRASESVDSYGKSFMHWYQQKPGQAPRLLIYRASNLESGIPARFSGSGSGTDFTLTISSLEPEDFAVYYCQQSNEDPWTFGGGTKLEIKRTVAAPSVFIFPPSDEQLKSGTASVVCLLNNFYPREAKVQWKVDNALQSGNSQESVTEQDSKDSTYSLSSTLTLSKADYEKHKVYACEVTHQGLSSPVTKSFNRGEC
tumor volume ± SEM ([1]; Day 0): 159 ± 15 mm^3
tumor volume ± SEM ([1]; Day 7): 188 ± 12 mm^3
tumor volume ± SEM ([1]; Day 14): 82 ± 7 mm^3
tumor volume ± SEM ([1]; Day 21): 21 ± 3 mm^3
tumor volume ± SEM ([1]; Day 28): 0 ± 0 mm^3
tumor volume ± SEM ([1]; Day 35): 0 ± 0 mm^3
tumor volume ± SEM ([1]; Day 42): 0 ± 0 mm^3
tumor volume ± SEM ([1]; Day 49): 0 ± 0 mm^3
tumor volume ± SEM ([1]; Day 56): 0 ± 0 mm^3
tumor volume ± SEM ([1]; Day 63): 0 ± 0 mm^3
tumor volume ± SEM ([1]; Day 70): 0 ± 0 mm^3
tumor volume ± SEM ([1]; Day 77): 1 ± 1 mm^3
tumor volume ± SEM ([1]; Day 84): 2 ± 2 mm^3
tumor volume ± SEM ([1]; Day 91): 10 ± 10 mm^3
tumor volume ± SEM ([1]; Day 98): 13 ± 13 mm^3
tumor volume ± SEM ([1]; Day 105): 111 ± 92 mm^3
tumor volume ± SEM ([1]; Day 112): 370 ± 269 mm^3
tumor volume ± SEM ([1]; Day 119): 521 ± 429 mm^3
tumor volume ± SEM ([1]; Day 126): 551 ± 428 mm^3
tumor volume ± SEM ([1]; Day 133): 745 ± 499 mm^3
tumor volume ± SEM ([1]; Day 140): 765 ± 494 mm^3
tumor volume ± SEM ([1]; Day 147): 794 ± 488 mm^3
Regression (TTP, Days) ([1]; Q4Dx4 ip): Regression (105) Days
effect on HUVEC sprouting angiogenesis (HUVEC cells): inhibited sprouting angiogenesis
tumor volume ± SEM (melanoma-23 (SK23) PDX; 2 mg/kg, Day 0): 187 ± 11 mm^3
tumor volume ± SEM (melanoma-23 (SK23) PDX; 2 mg/kg, Day 7): 432 ± 28 mm^3
tumor volume ± SEM (melanoma-23 (SK23) PDX; 2 mg/kg, Day 14): 456 ± 36 mm^3
tumor volume ± SEM (melanoma-23 (SK23) PDX; 2 mg/kg, Day 21): 509 ± 51 mm^3
tumor volume ± SEM (melanoma-23 (SK23) PDX; 2 mg/kg, Day 28): 679 ± 65 mm^3
tumor volume ± SEM (melanoma-23 (SK23) PDX; 2 mg/kg, Day 35): 793 ± 65 mm^3
tumor volume ± SEM (melanoma-23 (SK23) PDX; 2 mg/kg, Day 42): 868 ± 63 mm^3
tumor volume ± SEM (melanoma-23 (SK23) PDX; 4 mg/kg, Day 0): 196 ± 17 mm^3
tumor volume ± SEM (melanoma-23 (SK23) PDX; 4 mg/kg, Day 7): 356 ± 45 mm^3
tumor volume ± SEM (melanoma-23 (SK23) PDX; 4 mg/kg, Day 14): 227 ± 45 mm^3
tumor volume ± SEM (melanoma-23 (SK23) PDX; 4 mg/kg, Day 21): 150 ± 33 mm^3
tumor volume ± SEM (melanoma-23 (SK23) PDX; 4 mg/kg, Day 28): 135 ± 41 mm^3
tumor volume ± SEM (melanoma-23 (SK23) PDX; 4 mg/kg, Day 35): 166 ± 58 mm^3
tumor volume ± SEM (melanoma-23 (SK23) PDX; 4 mg/kg, Day 42): 178 ± 62 mm^3
tumor volume ± SEM (melanoma-23 (SK23) PDX; 4 mg/kg, Day 49): 228 ± 81 mm^3
tumor volume ± SEM (melanoma-23 (SK23) PDX; 4 mg/kg, Day 56): 250 ± 93 mm^3
tumor volume ± SEM (melanoma-23 (SK23) PDX; 4 mg/kg, Day 63): 295 ± 103 mm^3
tumor volume ± SEM (melanoma-23 (SK23) PDX; 4 mg/kg, Day 70): 398 ± 130 mm^3
tumor volume ± SEM (melanoma-23 (SK23) PDX; 4 mg/kg, Day 77): 568 ± 181 mm^3
tumor volume ± SEM (melanoma-23 (SK23) PDX; 4 mg/kg, Day 84): 688 ± 167 mm^3
tumor volume ± SEM (ovarian-55 (OV55) PDX; Day 0): 166 ± 8 mm^3
tumor volume ± SEM (ovarian-55 (OV55) PDX; Day 14): 33 ± 6 mm^3
tumor volume ± SEM (ovarian-55 (OV55) PDX; Day 35): 0 ± 0 mm^3
tumor volume ± SEM (ovarian-55 (OV55) PDX; Day 42): 0 ± 0 mm^3
tumor volume ± SEM (ovarian-55 (OV55) PDX; Day 49): 0 ± 0 mm^3
tumor volume ± SEM (ovarian-55 (OV55) PDX; Day 77): 0 ± 0 mm^3
tumor volume ± SEM (ovarian-55 (OV55) PDX; Day 84): 0 ± 0 mm^3
tumor volume ± SEM (ovarian-55 (OV55) PDX; Day 133): 0 ± 0 mm^3
tumor volume ± SEM (ovarian-55 (OV55) PDX; Day 168): 0 ± 0 mm^3
tumor volume ± SEM (ovarian-55 (OV55) PDX; Day 182): 0 ± 0 mm^3
tumor status at end of experiment (ovarian-55 (OV55) PDX; OV55 PDX model): tumor free when the experiment was terminated
